The whole screen tested about 420,000 compounds, of which about 64,000 (15%) were called active. Inconclusive means that the source gave no clear call. Such entries were picked first, then a sample of the others. The call rests on the fitted dose curve; in most records, active means well fitted inhibition curve with a large enough effect; inconclusive means small, poorly fitted or top-dose-only effect; inactive means flat fitted curve, though single readings scatter. No potency is given beside an inconclusive call; the fits are too rough.
Assay: qHTS for Inhibitors of human tyrosyl-DNA phosphodiesterase 1 (TDP1): qHTS in cells in absence of CPT; further: nearly all actives have a fitted effect of over 55% in size
Details: DT40 Tdp1-/- hTDP1 cells, no CPT, ATP luminescence, 48 h; activity change, negative = growth inhibition: at 46.2 µM (top of the series) unless noted
Outline: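 Camptothecin absent (DMSO only). Human TDP1-complemented DT40 knockout cells, 400 cells/well, 37 °C for minimum 48 hr; ATP measured via CellTiter-Glo, 30 min dark incubation, luminescence.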
On the % scale 0 is the no-effect control and ±100 the full control effect; potency means the concentration at half of the fitted maximal effect; tags describe the fitted curve by direction and shape.

SMILES | activity change, negative = growth inhibition | Potency
Cc1ccc(-n2ncc3c(=O)n(Cc4cccc(Cl)c4)cnc32)cc1C | inactive: -16.6% | –
CN(CCN1CCc2ccccc2C1)Cc1nc(Cc2ccccc2F)no1 | inactive: -15% | –
COc1ccc(CN2CCN(C(C)C(=O)N3CCc4ccccc43)CC2)cc1OC (configuration not stated) | – | inconclusive [inhibitor, partial curve]
COc1ccc(C(CNC(=O)C(C)Oc2ccc(Br)cc2)N2CCCCC2)cc1 (configuration not stated) | – | active: 20.6 µM
Cc1ccc(C(=O)N(CCc2ccccc2)Cc2ccccc2)cc1S(=O)(=O)N1CCOCC1 | – | active: 23.1 µM
COc1ccc(CCNC(=O)C2CCCN(S(=O)(=O)c3ccc(OC)cc3)C2)cc1 (configuration not stated) | – | inconclusive [inhibitor, partial curve, poor fit]
Nn1c(Nc2ccccc2)nc2ccccc21 | – | inconclusive [inhibitor, single point]
Cc1cc(/C=N/NC(=O)c2ccncc2)c(C)n1-c1ccccc1 | inactive: -25.7% | –
O=C(Nc1ccc(Oc2ccc(NC(=O)Nc3ccccc3Cl)cc2)cc1)Nc1ccccc1Cl | – | active: 20.6 µM
O=S(=O)(c1cc(Cl)cc(Cl)c1)N1CCN(c2nc(-c3cccs3)nc3ccccc23)CC1 | – | inconclusive [inhibitor, single point]
Cc1sc2ncnc(OCC(=O)N3CCN(S(=O)(=O)c4ccccc4)CC3)c2c1C | – | inconclusive [inhibitor, single point]
CCN1CCN(CCCN(Cc2ccco2)C(=S)Nc2ccc(C)c(Cl)c2)CC1 | – | inconclusive [inhibitor, single point]
CN=C1c2cc3c(Br)c(OC)ccc3n2CCN1C | – | inconclusive [inhibitor, single point]
Cc1cc(=O)[nH]c(SCC(=O)NCC2CCCCC2)c1C#N | inactive: 0.0121% | –
NC(=O)CCN(C1CCCCC1)S(=O)(=O)c1cccc2nsnc12 | inactive: -2.14% | –
Cc1ccc2c(CN3CCN(S(=O)(=O)c4ccc(Cl)cc4)CC3)cc(=O)oc2c1C | – | active: 16.4 µM
C=CCNC(=O)C(=O)NCCCN1CCOCC1 | inactive: -0.217% | –
Cc1nc(Nc2nc(CSc3ccc(Cl)cc3)cc(=O)[nH]2)nc2ccccc12 | inconclusive: -36.5% [inhibitor] | –
CC(C)c1onc(C(=O)NCc2ccc(Cl)cc2)c1[N+](=O)[O-] | – | inconclusive [inhibitor, single point]
CCOC(=O)c1ccc(NS(=O)(=O)c2ccc(-c3coc(C)n3)cc2)cc1 | inactive: -16.9% | –
CCOc1ccc(C(C)NC(=O)Nc2ccccc2C(=O)OC)cc1 (configuration not stated) | inactive: -29.2% | –
Cc1ccc(NC(=O)Cc2csc(-c3ccccc3)n2)cc1F | – | inconclusive [inhibitor, single point]
Cc1ccc(-c2nnn(CC(=O)N(CC(=O)NC3CCCCC3)c3ccc(F)c(Cl)c3)n2)o1 | – | active: 20.6 µM
CCOC(=O)C1CCN(C(=O)CS(=O)Cc2nc(-c3ccc(C)cc3)oc2C)CC1 (configuration not stated) | – | inconclusive [inhibitor, single point]

SMILES | activity change, negative = growth inhibition | Potency
CC(C)(CO)NS(=O)(=O)c1ccc2c(c1)Cc1cc(S(=O)(=O)NC(C)(C)CO)ccc1-2 | inactive: 2.65% | –
COC(=O)c1ccc2nc(NC(=O)C3CC3)sc2c1 | – | inconclusive [inhibitor, single point]
CSCCC(NS(=O)(=O)c1cccs1)C(=O)NCc1ccccc1 (configuration not stated) | – | inconclusive [inhibitor, single point]
COc1ccc(-c2nnc(SCc3nnc(-c4cccs4)o3)n2CC2CCCO2)cc1 (configuration not stated) | – | inconclusive [inhibitor, partial curve]
Cc1cc(NC(=O)CN2CCCCC2)n(-c2ccccc2)n1 | – | inconclusive [inhibitor, single point]
Cc1cc(C)c2cccc(NC(=S)NC(=O)c3ccccc3)c2n1 | – | active: 12.6 µM
CCOC(=O)Cc1csc(NC(=O)CSc2nc(C)cc(=O)[nH]2)n1 | – | inconclusive [inhibitor, single point]
COc1ccc(NC(=O)CCCOc2cc(=O)n(C)c3ccccc23)c(OC)c1 | – | inconclusive [inhibitor, partial curve]
COc1ccc2c(c1)sc(=NC(=O)CS(=O)(=O)c1ccc(F)cc1)n2C | – | active: 20.6 µM
COc1cc(/C=C/C(=O)OCC(=O)NCCN2C(=O)CSC2=O)ccc1OCC#N | inactive: 12.4% | –
COc1ccc(N2CCOCC2)c(NC(=O)c2ccc(Br)o2)c1 | – | inconclusive [inhibitor, single point]
C/C(=N\Nc1nc2ccccc2[nH]1)c1ccc2c(c1)OCCO2 | – | inconclusive [inhibitor, single point]
CCCCC[C@H](O)CC[C@H]1[C@H](O)CC(=O)[C@@H]1CCCCCCC(=O)O | inactive: 3.92% [at 4.12 µM] | –
Cc1ccc(C)c(S(=O)(=O)NNC(=O)Nc2ccccc2Cl)c1 | inactive: -0.202% | –
COc1ccc(/C=N/NS(=O)(=O)c2ccccc2)cc1OS(=O)(=O)c1ccccc1 | inactive: -25.4% | –
COc1ccc(CN2CCN(CC(O)Cn3c4ccccc4c4ccccc43)CC2)cc1 (configuration not stated) | – | inconclusive [inhibitor, single point]
COCCNC(=O)CSc1c(C)cnc2c1c(=O)n(C)c(=O)n2C | inactive: 1.96% | –
CCOC(=O)c1ccccc1NC(=O)COC(=O)CCC(=O)c1ccccc1 | inactive: 3.61% | –
CCOC(=O)C1CCN(C(=O)c2ccc3c(c2)NC(=O)/C(=C\c2ccc(C)cc2)S3)CC1 | – | inconclusive [inhibitor, single point]
CCCNC(=O)COc1ccccc1[N+](=O)[O-] | inactive: -4.98% | –
CC1CCc2c(sc3ncnc(NCc4cccnc4)c23)C1 (configuration not stated) | – | inconclusive [inhibitor, partial curve]
Cc1nc(N2CCOCC2)c2c3c(sc2n1)CCC3 | – | inconclusive [inhibitor, single point]
CCOC(=O)c1cccc(NC(=O)c2ccc(NC(=O)C3CCCO3)cc2)c1 (configuration not stated) | – | inconclusive [inhibitor, single point]

Reference: PubChem BioAssay AID686978 (National Center for Advancing Translational Sciences (NCATS), 2013)
